Measured values reported in the supplement of paper PMC11417369.
Some of the results follow.

tested on: PF3D7_0420300 AP2 domain 1 (GST-tagged); experiment: gcPBM binding intensity (ln(normalized median fluorescence intensity)); higher = stronger DNA binding
In short: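 The highest Masliner-normalised natural-log median intensity across replicate spots of either probe orientation is reported as binding intensity. GST-tagged P. falciparum DNA-binding domains expressed in E. coli were applied for 1 h to an Agilent 4 × 180k array of primer-extended double-stranded 36-bp intergenic genomic probes plus negative controls, and bound protein was detected with Alexa488 anti-GST antibody and scanned at 488 nm.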

Sequence	gcPBM binding intensity (ln)
TTATATATTTTTTGCACACCAAAAAAGAGAATATTC [CACACA_site2730]	9.2
TATAAATATAAATACACACACATATATATTATATAT [CACACA_site4496]	9.85
TATATATATATATGTTGTACATATTTAAATGTTTAT [XGTACX_site5437]	9.08
ATATATATATATATGTGTACATAATAACTTTGCTTA [XGTACX_site1255]	9.25
ACCTATTTCAAACACACACACACACTAGCAAACATA [CACACA_site4695]	10.3
TAAATACAAAAATGTACACACATATATATATTTTTA [CACACA_site3503]	9.42
TAAATTTTAATATGCACACAAAATGTTATATTAAAA [CACACA_site4366]	9.11
CGGCACATTATATATACACACATATAAATATATACA [CACACA_site8086]	9.5
TATATCTTAATATACACACACACATATATATATATA [CACACA_site4968]	9.92
TAAATGAAAACCATTAGTACTTATACTGATAAATGT [XGTACX_site763]	9.23
TATATAAATATATATACACACAAAAAAAAAAAAAAA [CACACA_site1406]	9.46
AAAAATAAAATAATATGTACATATATAATATATATA [XGTACX_site4786]	9.28
TATTCGAAAATTATTCAAATTATCTAACATATTATT [TGCATGCA_negctrl_site70]	8.92
AATTGGAAACAACCAAAAAAATTAAAGTTGTATCCT [CACACA_negctrl_site565]	8.98
TAATTTTTTAGACACACACACATATAAATATAAATA [CACACA_site6195]	9.94
TTGTATATTATATGTACACACAATAAGTTAATATAA [CACACA_site909]	9.27
TTCCTTTGTCCTAACTGTACTCAAATTTATTAGTGG [XGTACX_site226]	9.3
ATAATATATTTTTGAACACACAATATAGATTTATAT [CACACA_site7857]	9.36
TAATTAAAATTATCTACACACCTTTATAAATATATA [CACACA_site3928]	9.26
AAAAAAAGTTGATACTGTACTCGTGCATTATGAATA [XGTACX_site5558]	9.26
CTTATTAAAATTATTTGTACACAATATGTAAAAGTA [XGTACX_site7237]	8.95
AGGTATTTTCTTGTGACACACATATATATATATATT [CACACA_site2220]	9.7
TTTTGCAATAATGTTGCACACTAAATAGTCATATAT [CACACA_site7977]	9.17

Sequence	gcPBM binding intensity (ln)
TTTATATTGATATATACACACATATACATCCTATTT [CACACA_site7442]	9.56
ATTATTGTTGTTCATGTACACACTATAATAAAAGCA [CACACA_site4168]	9.27
ATTAATTATTTCAATGCATGTGAACACTATATATAA [TGCATGCA_site600]	9.26
TAAATATTTTTATGGGTGCGTTCTTTAGCGCAATTT	8.92
CATATAAAAAATATGGTGCAGTTTTTTTTTTTTTTT	9.1
TATATATATAATGTTTGTACATATTAAATATATATG [XGTACX_site407]	9.1
TCCATTTATAAATTAGCATGCAATCTATGTCTGATA [TGCATGCA_site1045]	9.02
ATCAAAAGAAAACACACACACATACAGATATATATA [CACACA_site5974]	10.2
AATTAATGGGTACATACACACATATATACCTACATA [CACACA_site4572]	9.57
ATATATCAATATAAAAGTACAAACAAAAAATAATCA [XGTACX_site7559]	9.68
GATATATACTCCATCACACACCAAAAAGAAAAAAGA [CACACA_site7242]	9.53
ATATATATATATATATGTACATATTTCTCCATTTTT [XGTACX_site2869]	9.01
CATATTTTTATAAATTGTACGTATATTATATATATA [XGTACX_site1816]	9.18
GTTTTTTATAATTGTAGTACAAGAAGATATTTTTAT [XGTACX_site5443]	9.19
TGCAATTGTAAAGGCGCACACATATATATATATATA [CACACA_site4894]	9.42
GCATTGTCCATGCGCACACACTACTAGAATAATATG [CACACA_site5932]	9.49
AAACCGTGGGAGCACACACACACACCGACACATATA [CACACA_site4338]	10.1
CCATCTAAACACAACTCGAGTTGGATGTGTGAACTT [XGTACX_negctrl_site83]	9.3
CGGCACATTATATATACACACATATAAATAAATACA [CACACA_site4477]	9.6
TATATATATAAGTGCACACTGAACCAAGAAAATTAT [CACACA_site3008]	9.59
GGATTGATAAGTGGTACACACATATAGATTATAGAT [CACACA_site7367]	9.53
AATATTAAATGAAAAAGTACAAACAGTCCTATATTA [XGTACX_site1926]	9.23
ATTTATATAAAGAATGTACACACAGAAATGCACCCA [CACACA_site8715]	9.65

Sequence	gcPBM binding intensity (ln)
CGTATGCACAAATTATGTACTTATATATATATATAT [XGTACX_site2348]	9.34
TAAATATATATATGTGTGCACTTCTTCATTTTAATA [GTGCAC_site9537]	9.47
AAAAAAAAAAAACATACACACAAATAAATACATACA [CACACA_site6073]	9.9
ATACAAGAATTAAACACACACAAAATATAAATTCTT [CACACA_site3005]	9.9
AGCAACCTGAAAAAATTACTCTTTCTTAAACAAATT [XGTACX_negctrl_site266]	8.92
ACCTGTAAAAATGTTTATATATATATATATATATAT [CACACA_negctrl_site1500]	9.33
TTAAGGATTAAGGTGTGTACATATAAATATTATATA [XGTACX_site7532]	9.31
TGTTTATTCTTTAAATATTATTCAAATACTACAAGT [CACACA_negctrl_site746]	8.95
AAAAAAAAAAAAAATTGTACATAATAAAAATATGGA [XGTACX_site3189]	9.07
TATGGTAAATACAACACACACACATATGTATTTATA [CACACA_site4666]	9.93
TGGATATAAAACAACGTGCACTTGGTTGATTTTAAA [GTGCAC_site9900]	9.09
ATTTATTTATATAATACACACAAATATCTTAATTAA [CACACA_site3993]	9.25
TTTTGTACAAAAATAATGCACACTATATCAAGTTTT [CACACA_site3595]	9.22
AAGAAAATATATTCACATGAAGAATTAAAATAAAAC [TGCATGCA_negctrl_site119]	9.47
ATATAAAAAGGAAAAAGTACAAAAAAATGTTTGTGA [XGTACX_site8552]	9.33
CAAATTATTATTTAAGCACACATGTTTATTTTTTTT [CACACA_site2672]	9.34
TAGGCCTTAAATCGTGTGCACTTTTTTTTTTTTTTT	9.31
TATGTGCCAAAACACACACACATATATATATATATA [CACACA_site469]	9.62
TTTTTTTTTTTTTTTTTTGGTGAGAGAAGAAAATTC [CACACA_negctrl_site950]	8.49
AAGCATACATCAAGCACACACACACCCACACCCACA [CACACA_site372]	10.1
AAATATATCAATATATATATATATATATATATATAT [XGTACX_negctrl_site544]	8.92
ATTTATATTTGTATTTGTACTTATATTTATATTTAT [XGTACX_site1540]	9.64
GCTTTTGTCATGTGCACACACGTATATATTATATAT [CACACA_site6146]	9.99

Sequence	gcPBM binding intensity (ln)
AAAAAGGTTAAGGTAGTGCATAATAAAGAATATTAA	9.25
ATCATTCTTCATTTGTCACACATGATAAAAATATAT [CACACA_site4953]	9.34
CTATTTTGGATGTGTACACATATATATATTTATATT [CACACA_site5706]	9.53
CTATTATAATATTTTACACACCATGTAAAATATATA [CACACA_site3206]	9.26
TTTTTTAAGTAATGAAATGATTTTCTTATAGAATAA [GTGCAC_negctrl_site395]	8.58
CATTAACATTTTATTACACACAATAATTTATAAGTA [CACACA_site4083]	9.37
TGTGCAAGATTTTTCTGTACATATATATAAATATAT [XGTACX_site1796]	8.9
AAATATTCTTGTTTAATACACACTGTAGTATTATAT [CACACA_site433]	9.45
TAAATACTAATATGTACACACATATAGATATAGATT [CACACA_site7247]	9.4
GCTAAAAGTATATGCACACACATATATATGCACATA [CACACA_site1635]	9.58
TTTTGTACTTCATGCGTGCACAGAAATATATTATAT	9.21
GAATAAGATAGATATACACACCATTATAAATATAAA [CACACA_site5392]	9.55
TTAAATAGATAAACTAAACACACAAAAAAAAAAAAA [CACACA_site8308]	9.47
ATGTTAATCATTAAAAATAAAGTTTAATATAAGAAT [XGTACX_negctrl_site155]	9.2
CAAAACAAGCAAAAATGTACTTGATAAATATTTTCT [XGTACX_site1776]	9.2
AACATACCCATATACACACACACATAAATACAGATA [CACACA_site4744]	10.1
ATTTAATTCTTTTGTTATAAAATTTTAGTATATATA [CACACA_negctrl_site1649]	9.2
CAAAAAAAATTATACACACACACACCGATATATATA [CACACA_site4719]	10.2
TTTATATATCAATACATTATGTATTAAGTCTTACAT [TGCATGCA_negctrl_site499]	9.17
TTTTAATTAAAAAAATATATAATAAAATTAAATTAT [CACACA_negctrl_site95]	8.77
